43 compounds from ChEMBL document CHEMBL4888484, “Replenishing the malaria drug discovery pipeline: Screening and hit evaluation of the MMV Hit Generation Library 1 (HGL1) against asexual blood stage Plasmodium falciparum ,using a nano luciferase reporter read-out” (2022) can be followed below.

SMILES strings stand for the structures. Screen size: about 150,000 compounds; about 540 (0.36%) showed an effect of 50% or more. The list shows a part of the results.

One may read the % Inhibition as the drop in the measured response relative to a control, in per cent.

The subject of this assay is Plasmodium falciparum. As to the kind of experiment: Primary screen in NF54 nanoGlo assay, in single point, at 2uM, 72h; a lower Z score goes with more inhibition. Conditions: timepoint 72 hour. Format: functional, Erythrocyte.
Consider `FC(F)(F)c1cc(-c2ccco2)nc2cc(-c3ccc(Cl)c(Cl)c3)nn12`, for which the “% Inhibition” value is -12% and the Z score worked out at 1.58.
Consider `Cc1cc(N2CCCCCC2)n2nc(CN3CCN(C)CC3)nc2n1`, for which the “% Inhibition” value is given as -10% and the Z score came to 1.26.
Regarding `OCc1nc([C@H]2CCOC2)nn1-c1cccc2cccnc12`, the “% Inhibition” value worked out at 7% and the Z score is listed as -0.67.
The matching figures for `CC1CCN(C(=O)c2nc(-c3cnccn3)no2)CC1`: -15% and 2.2.
As to `CC(C)(CN[C@H]1CCCS(=O)(=O)C1)c1cccc(F)c1`, the “% Inhibition” value is listed as -5% and the Z score was 0.49.
For `Cc1cccc(C(C)NCC(O)CN(C)C)c1` (stereo unspecified), in that order: -1% and 0.09.
With `CCc1nc2c(c(C(=O)N3CCN(c4ncccn4)CC3)n1)OCCO2`, the “% Inhibition” value is listed as -9% and the Z score is reported as 1.21.
As to `O=C(CC1CCCC1)Nc1ccccc1C(=O)NC1CC1`, the “% Inhibition” value is given as -7% and the Z score was 0.61.
With `O=C(Cn1nc2ccc(C(=O)NCc3ccccc3)cn2c1=O)Nc1cccc(Cl)c1`, the “% Inhibition” value is -14% and the Z score is recorded as 1.25.
Consider `O=C(Nc1ncc(Cc2cccc3ccccc23)s1)c1ccccc1Cl`, for which the “% Inhibition” value is on record as -3% and the Z score came out at 0.46.
For `COCCN(CCN(C)C)C(=O)c1ccc(Br)c(F)c1`, the “% Inhibition” value is listed as 6% and the Z score was -1.02.
Consider `c1cc2c(cc1-c1nnc(C3CCCC3)o1)OCO2`, for which the “% Inhibition” value was -22% and the Z score is given as 3.22.
Regarding `CC(C)Oc1cccc(CC(=O)NC2(CF)CCOCC2)c1`, the “% Inhibition” value was found to be 15% and the Z score is recorded as -1.73.
In the case of `C#CCN(CC#CC)CC(=O)NCc1cccnc1`, the “% Inhibition” value is on record as -11% and the Z score came out at 2.07.
Regarding `CC1(C)CCCN(C(=O)NCCCn2cccn2)CC1`, the “% Inhibition” value was -8% and the Z score was 1.55.
Turning to `CCn1c(=O)c(C)nc2cc(-c3noc(Cc4ccc(NC(C)=O)cc4)n3)ccc21`, the “% Inhibition” value was found to be 12% and the Z score was -1.16.
As to `CCN(C(=O)c1ccc2c(c1)OCCCO2)C1CC1`, the “% Inhibition” value was -7% and the Z score amounted to 0.84.
The matching figures for `CCCCCc1ccc(C(=O)N2CCCC[C@H]2c2nc(-c3ccc(OC)cc3)no2)cc1`: 6% and -0.91.
Regarding `COCCCN(C)C(=O)[C@H](C)Oc1ccc(Cl)cc1`, the “% Inhibition” value was -6% and the Z score is reported as 1.04.
For `Cc1cccc(C[C@H](C)NC(=O)CC2=CCCC2)n1`, the “% Inhibition” value is -8% and the Z score was 0.86.
The matching figures for `CCCN(C)C(=O)CCc1ccnc(N(CC)CC)c1`: -29% and 3.08.
The matching figures for `COc1ccc(N[C@@H](C)c2cn[nH]c2C)cn1`: -6% and 0.7.
Turning to `O=C(Nc1cc(F)ccc1F)C(=O)N1C2CCC1CC(O)C2` (stereo unspecified), the “% Inhibition” value stood at 2% and the Z score is listed as -0.27.
As to `COc1ccc2c(c1)-c1nc(-n3ncc(C(=O)NCCN4CCOCC4)c3C)ncc1CC2`, the “% Inhibition” value is -12% and the Z score was 2.15.
As for `Cc1ccc(C(=O)N(Cc2ccc(F)cc2)C2CCCCC2)cc1NC(=O)c1ccco1`, the “% Inhibition” value is recorded as -5% and the Z score is listed as 0.46.
Regarding `Cc1ccc(C)c(-n2c3c(cc(C#N)c2=O)C(=O)C[C@H](c2ccccc2)C3)c1`, the “% Inhibition” value was found to be 6% and the Z score is -1.04.
For `O=C(CC1=CCCCC1)N1CCC(C(=O)N2CCCCCC2)CC1`, in that order: -7% and 0.84.
With `O=S(=O)(NC1CCCC1)c1ccc(-c2cnc(C3CCCC3)o2)s1`, the “% Inhibition” value is reported as -5% and the Z score was 0.62.
With `CC(C)S(=O)(=O)CCCN1C(=O)N[C@@](C)(C(C)(C)C)C1=O`, the “% Inhibition” value is -7% and the Z score came out at 0.77.
`CCCCN1CCCC[C@@H]1CNC(=O)Nc1c(C)noc1C`: the “% Inhibition” value is reported as -9% and the Z score is recorded as 1.15.
The matching figures for `O=C(CCc1nc(-c2ccsc2)no1)Nc1cccc(C(F)(F)F)c1`: -2% and 0.25.
On to `CCN1CCC[C@@H]1CN(Cc1cccnc1)Cc1ccsc1`, for which the “% Inhibition” value was found to be 7% and the Z score is -1.31.
For `CCOc1ccc2nc(NC(=O)[C@H]3CCCN(c4cc(C5CC5)ncn4)C3)sc2c1`, the “% Inhibition” value came out at 8% and the Z score is -1.61.
Turning to `CCOCC1(CNC(=O)c2csc(C)c2)CCC1`, the “% Inhibition” value is listed as -4% and the Z score was found to be 0.73.
`CCc1cc(NC(=O)c2cc(C(C)(C)C)on2)nc(C)n1`: the “% Inhibition” value was -2% and the Z score came to 0.24.
For `O=C(NCC1CCN(C(=O)c2nc3ncccn3n2)CC1)c1ccc(Cl)cn1`, in that order: -17% and 3.17.
`CCn1cc(-c2nc(-c3ccccc3C)no2)c(=O)c2cc(F)c(N3CCCCC3)cc21`: the “% Inhibition” value is 51% and the Z score was -3.9.
With `COc1ccc(-c2csc(C)n2)cc1S(=O)(=O)Nc1ccc(C#N)cc1`, the “% Inhibition” value is -14% and the Z score was determined as 1.84.
For the compound `C[C@H](O)CNC(=O)c1ccnc(OCC2CC2)c1`, the “% Inhibition” value was -13% and the Z score was determined as 2.51.
On to `CCn1cnnc1CCNc1ncnc2oc(C)nc12`, for which the “% Inhibition” value is listed as -16% and the Z score is given as 2.66.
With `O=C(N[C@@H](Cc1ccccc1)c1nc(-c2cccc(Cl)c2)no1)c1cccs1`, the “% Inhibition” value is listed as 5% and the Z score is -0.6.
Turning to `O=C(Cc1nc2c(s1)C(=O)CCC2)NCc1ccco1`, the “% Inhibition” value is -13% and the Z score is reported as 1.95.
For `C[C@@H](CC(=O)NCc1ccsc1)NC(=O)OC(C)(C)C`, in that order: -3% and 0.31.
